About 14,000 (4.5%) of roughly 310,000 compounds showed an effect of 50% or more. Effects have a minus sign here. Some of the results follow.
Target: human ether-à-go-go-related gene (hERG) potassium channel (human, UniProt Q12809)
Assay: primary screen, population patch clamp on CHO cells stably expressing hERG
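Note: peak tail current of the secondary pulse compared with the same well before compound.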

Chain of human ether-à-go-go-related gene (hERG) potassium channel (Q12809 whole entry, looked up): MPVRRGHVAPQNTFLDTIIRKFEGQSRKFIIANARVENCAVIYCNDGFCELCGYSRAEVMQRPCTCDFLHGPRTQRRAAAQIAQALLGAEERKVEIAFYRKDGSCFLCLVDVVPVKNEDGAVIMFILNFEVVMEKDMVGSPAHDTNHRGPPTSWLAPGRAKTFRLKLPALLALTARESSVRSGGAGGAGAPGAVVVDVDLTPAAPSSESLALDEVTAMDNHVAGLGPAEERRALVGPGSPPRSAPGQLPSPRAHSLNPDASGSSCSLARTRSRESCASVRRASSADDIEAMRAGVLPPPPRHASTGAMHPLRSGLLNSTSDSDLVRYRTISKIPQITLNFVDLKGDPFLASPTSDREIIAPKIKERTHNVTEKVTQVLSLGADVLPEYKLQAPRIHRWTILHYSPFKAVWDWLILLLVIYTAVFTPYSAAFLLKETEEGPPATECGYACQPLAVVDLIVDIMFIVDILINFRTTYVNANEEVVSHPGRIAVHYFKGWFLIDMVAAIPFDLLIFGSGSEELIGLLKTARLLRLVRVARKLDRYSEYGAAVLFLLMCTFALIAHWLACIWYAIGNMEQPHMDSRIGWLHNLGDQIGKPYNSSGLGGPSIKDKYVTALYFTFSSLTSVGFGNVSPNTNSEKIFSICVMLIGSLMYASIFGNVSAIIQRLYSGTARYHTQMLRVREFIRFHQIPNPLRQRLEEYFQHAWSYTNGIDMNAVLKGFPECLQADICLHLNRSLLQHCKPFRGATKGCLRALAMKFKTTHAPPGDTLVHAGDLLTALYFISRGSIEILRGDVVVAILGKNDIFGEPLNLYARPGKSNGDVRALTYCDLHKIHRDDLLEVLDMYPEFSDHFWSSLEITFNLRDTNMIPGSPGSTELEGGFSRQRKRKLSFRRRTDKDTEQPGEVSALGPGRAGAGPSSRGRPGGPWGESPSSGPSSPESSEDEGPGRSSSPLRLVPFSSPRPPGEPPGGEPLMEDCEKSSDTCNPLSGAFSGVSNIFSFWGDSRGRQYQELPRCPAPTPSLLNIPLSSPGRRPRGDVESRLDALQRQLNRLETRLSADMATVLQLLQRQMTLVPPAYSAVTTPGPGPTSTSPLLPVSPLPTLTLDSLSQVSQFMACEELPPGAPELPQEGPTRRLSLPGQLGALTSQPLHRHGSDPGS

| Compound | hERG current change (%, negative = inhibition) at 10uM [%] |
| --- | --- |
| Cc1ccccc1CN(CC(=O)Nc1cccc([N+](=O)[O-])c1)S(=O)(=O)c1ccc(Cl)cc1 | 15.1 |
| CN(CC(=O)NCc1ccccc1Cl)S(=O)(=O)c1cccs1 | -3.23 |
| COc1ccc(Cl)cc1NC(=S)N1CCC(c2ccc(C)cc2)C1 (stereo not drawn) | -1.95 |
| COC(=O)c1cc(=O)n(Cc2cccs2)c(=NCc2cccs2)s1 | -1.05 |
| COc1ccc(C(CNC(=O)c2ccco2)N2CCCC2)cc1 (stereo not drawn) | -7.05 |
| O=C(CCN1C(=O)/C(=C\c2ccccc2Cl)SC1=S)N1CCN(c2ccccc2)CC1 | 13.2 |
| COc1ccc(NC(=O)Cn2cnc3sc(C)c(S(=O)(=O)N4CCOCC4)c3c2=O)cc1Cl | -35.8 |
| CCOC(=O)c1cnc2nc(COc3ccccc3)[nH]n2c1=O | -6.92 |
| CCOCCCn1c(SCC(=O)Nc2ccc(C(N)=O)cc2)nc2ccccc2c1=O | -9.16 |
| COc1ccc(N(C(=O)c2ccc(Br)o2)C2C=CS(=O)(=O)C2)c(OC)c1 (stereo not drawn) | -19.3 |
| Cc1c(C(=O)n2cnc3ccccc32)cccc1[N+](=O)[O-] | -41.3 |
| N#Cc1ccsc1NC(=O)COC(=O)C1=NNC(=O)CC1 | 6.29 |
| Cc1ccc(S(=O)(=O)NCCc2nnc3ccc(NCCCOC(C)C)nn23)cc1 | 6.32 |
| CCOc1ccc(CCN2C(=O)CCC2(C)C(=O)NC(C)CC)cc1OCC (stereo not drawn) | -6.94 |
| Cn1cc(C(N)=O)c2ccccc21 | 6.98 |
| COc1ccccc1NC(=O)CN1CCN(c2ccccc2OC)CC1 | -5.29 |
| COc1ccc(CCNC(=O)CC(=O)NCCc2ccc(OC)cc2)cc1 | 25.1 |
| COc1ccc(Cl)cc1NC(=O)CCN1C(=O)C2CC=CCC2C1=O (stereo not drawn) | 2.79 |
| CCC(Sc1ncccc1C(=O)OC(C)C)C(=O)N1CCOCC1 (stereo not drawn) | 7.62 |
| Cc1ccc(C(=O)Nc2nc3n(n2)C(c2ccccc2)CC(=O)N3)cc1 (stereo not drawn) | 14.5 |
| Cc1coc2cc3oc(=O)c(CC(=O)N(C)CC(=O)O)c(C)c3cc12 | 16.6 |
| COc1cc(NC(=O)c2cccnc2Sc2ccc(C)c(C)c2)cc(OC)c1OC | 9.79 |
| CCCn1nnnc1NCc1ccccc1F | 8.11 |

| Compound | hERG current change (%, negative = inhibition) at 10uM [%] |
| --- | --- |
| CCCNc1c(N)c(=O)c1=O | 6.3 |
| CCO[C@H]1OC(C(=O)N2CCN(C)CC2)=C[C@@H](C(C)(C)C)[C@@H]1CCCO | 0.924 |
| Cc1ccn2c(=O)c(C(=O)NC3CCCCC3C)c(O)nc2c1 (stereo not drawn) | 3.26 |
| Cc1cnc(C(=O)OCC(=O)NC(=O)c2ccccc2)cn1 | 12.8 |
| Cc1cccc(NC(=O)CCNS(=O)(=O)c2cccc3nonc23)c1C | 12.4 |
| COc1ccc(OC)c(NC(=O)C2=C(C)Nc3ncnn3C2c2cccs2)c1 (stereo not drawn) | 2.8 |
| Cc1cccc(Nc2nnc(SCc3cc(=O)n4cc(C)ccc4n3)s2)c1 | 22 |
| CCOc1ccccc1NC(=O)C1CCCN(S(C)(=O)=O)C1 (stereo not drawn) | 7.31 |
| Cn1c2c(c(=O)n(C)c1=O)C(c1ccc(Br)cc1)C(C#N)=C(N)N2 (stereo not drawn) | 11.6 |
| Cc1ccc(Cn2c(=O)cc(C(=O)O)c3ccccc32)cc1 | -1.27 |
| COc1cc(S(=O)(=O)NCc2ccc(F)cc2)ccc1-n1cnnn1 | -40.2 |
| CC(C)(C)NC(=O)C1CC2CCCCC2CN1 (stereo not drawn) | 13 |
| CSc1ccc(C2CC(=O)Nc3nc(SC)[nH]c(=O)c32)cc1 (stereo not drawn) | 15 |
| CNC(=O)CSc1nc(-c2ccccc2)c(-c2ccccc2)[nH]1 | -8.63 |
| CC(=O)Oc1ccc(N2C(=O)c3cccc4c([N+](=O)[O-])ccc(c34)C2=O)cc1 | 24.3 |
| Cc1nnc(NC(=O)c2c(F)c(F)c(F)c(F)c2F)s1 | 18.5 |
| COC(=O)C1=CN(Cc2ccc(OC)cc2)C=C(C(=O)OC)C1c1ccsc1 | 26 |
| Cc1nnc(SCC(=O)N2CCN(S(=O)(=O)c3ccccc3)CC2)s1 | -4.48 |
| CCOc1ccccc1N1CCN(S(=O)(=O)c2ccc3c4c(cccc24)C(=O)N3)CC1 | -18.9 |
| CC(=O)CC(=O)Nc1ccc(C(N)=O)cc1 | 9.92 |
| COc1c2c(nc3occc13)C(CC=C(C)C)(OC)C(=O)C=C2 (stereo not drawn) | -0.182 |
| COc1ccccc1NCC(=O)N1CCN(S(=O)(=O)c2ccccc2)CC1 | 1.34 |
| CC(=O)Nc1ccc(N(C(=O)c2ccco2)C(C(=O)NC2CCCC2)c2ccncc2)cc1 (stereo not drawn) | 9.75 |

| Compound | hERG current change (%, negative = inhibition) at 10uM [%] |
| --- | --- |
| CCc1nnc(NC(=O)CCC(=O)N2CCN(Cc3cc(F)ccc3OC)CC2)s1 | 7.44 |
| COc1ccc(N2CCN(C(=O)c3ccc4nc(N5CCCCC5)sc4c3)CC2)cc1 | 7.28 |
| COc1cc(NC(=O)Cn2nc(Cc3cccnc3)c3ccccc3c2=O)cc(OC)c1OC | -0.339 |
| O=C(Nc1ccc(F)cc1)C1CC(=O)n2cnnc2N1 (stereo not drawn) | 12.4 |
| O=C(O)c1c[nH]c2ccc(S(=O)(=O)N3CCN(c4ccc(F)cc4)CC3)cc2c1=O | -11.4 |
| O=C1CCCN1c1nccs1 | 21.2 |
| CCN(Cc1ccccc1)Cc1cccc([N+](=O)[O-])c1 | -23.5 |
| COc1ccc(CN2CC(=O)N(c3ccccc3OC)C2=S)cc1OC | 5.92 |
| Cc1ccc(S(=O)(=O)N(C)C)cc1NC(=O)CN1c2cccc3cccc(c23)S1(=O)=O | 10.2 |
| CCN(CC)C(=O)CSc1nnc(-c2ccco2)o1 | 3.66 |
| O=C(Cn1c2ccccc2c2nc3n(c(=O)c21)CCS3)Nc1ccccc1 | 13.3 |
| C/C(=N\Nc1nc(C)cc(C)n1)c1ccc(N2CCOCC2)cc1 | -5.51 |
| COc1ccc(-c2csc3nc(-c4ccccc4F)oc(=O)c23)cc1OC | -3.61 |
| CCOC(=O)/C(C#N)=C/c1ccc(N2CCCCC2)cc1 | -60.9 |
| C=C(C)COc1ccc(-c2ncncc2-c2ccccc2OC)c(O)c1 | 1.92 |
| Cc1csc(CNc2ncnc3ccc(-c4ccc5c(c4)OCCO5)cc23)c1 | 5.22 |
| O=c1[nH]c(=O)n(Cc2ccc(F)cc2)c(O)c1/C=N/Nc1ccccc1 | 4.85 |
| FC(F)(F)C(F)(F)C(F)(F)c1nnc2ccc(N3CCOCC3)nn12 | -4.23 |
| O=C(Nc1nc2c(s1)CN(Cc1ccccc1)CC2)C1CCCC1 | -18.8 |
| CCn1c2ccccc2c2cc(NC(=O)CSc3nnc(-c4ccccc4OC)n3N)ccc21 | 7.44 |
| Cc1cc(=O)n(Cc2ccc(OC(C)C)cc2)c(=S)[nH]1 | -5.37 |
| O=C(CN1CCc2cc3c(cc2C1)OCCCO3)Nc1cccc([N+](=O)[O-])c1 | -8.91 |
| CC(C)(C)c1ccc(CS(=O)CC(O)CO)cc1 (stereo not drawn) | 19.3 |

| Compound | hERG current change (%, negative = inhibition) at 10uM [%] |
| --- | --- |
| O=C(NC1(N2CCOCC2)CC1)c1ccc(Cl)cc1 | 19.5 |
| CC(C)NC(=O)CCc1nnc(Cc2cccc(C(F)(F)F)c2)o1 | 10.7 |
| CCNc1ccc(P(=S)(N(C)C)N(C)C)cc1 | -10.1 |
| CCOC(=O)C1CCCN(C(=O)c2cc(=O)c3ccccc3o2)C1 (stereo not drawn) | -0.632 |
| CCOCCCNC(=O)c1ccc(CS(=O)(=O)Cc2ccc(C)cc2)o1 | 6.15 |
| C/C(=N\NC(=O)COc1ccc(C(C)(C)C)cc1)c1cc2ccccc2o1 | -14.7 |
| CCOC(=O)C1=C(N)OC2=C(C(=O)CC(C)C2)C1c1cccnc1 (stereo not drawn) | 0.824 |
| CCn1c(NC(=O)c2ccccc2F)c(-c2cccs2)c(=O)c2ccccc21 | -6.52 |
| CS(=O)(=O)N(CC(=O)Nc1cc(Cl)ccc1Cl)c1ccccc1 | -7.32 |
| CCOC(=O)c1ccc(NC(=O)C2(c3ccccc3)CCCC2)cc1 | -19.6 |
| Cc1nc2c(C)cccn2c(=O)c1NC(=O)c1cccc2ccccc12 | 10.5 |
| COc1cccc(-n2c(O)c(C=NCCN3CCNCC3)c(=O)[nH]c2=S)c1 | 5.08 |
| O=C(NCc1ccco1)C(c1ccccc1)N(C(=O)Cc1cccs1)c1ccccc1 (stereo not drawn) | 19 |
| O=P(O)(CCc1ccncc1)CN1CCCCC1 | 22.2 |
| Cc1ccccc1NC(=O)Cn1cnc2c1c(=O)n(C)c(=O)n2C | 13.3 |
| COCCN(C(=O)CSc1nnc(C)n1-c1ccc(C)cc1)c1c(N)n(Cc2ccccc2)c(=O)[nH]c1=O | -2.83 |
| CCO[C@@H]1OC(C(N)=O)=C[C@H](c2coc3ccccc3c2=O)[C@H]1CCCO | -1.47 |
| C/C(=C\c1ccccc1)C(=O)NC1CCSC1=O (stereo not drawn) | -4.78 |
| Cc1nc(CN2CCCCC2)cc(=O)[nH]1 | 20.2 |
| CN1C(=O)N(c2nnc(C(C)(C)C)s2)C(=O)C1c1ccccc1 (stereo not drawn) | 9.54 |
| Cc1oc2c(C)c3oc(=O)c(CCC(=O)O)c(C)c3cc2c1-c1ccccc1 | 17.9 |

Source: article PMC4336329 (PLoS ONE, 2015)
